Experimental data as given in PMC5675595.
Numbering of substitutions follows the chain as printed. These are yes or no findings as the source states them, for the method shown. In cells and extracts the contact can be indirect. Some entries that bind do so weakly or less than the wild type. Where a sequence is shown, tags or fusion partners need not be part of it.

Chains of the proteins cited; added tags and fusions are not shown.
UniProt Q6PDM2: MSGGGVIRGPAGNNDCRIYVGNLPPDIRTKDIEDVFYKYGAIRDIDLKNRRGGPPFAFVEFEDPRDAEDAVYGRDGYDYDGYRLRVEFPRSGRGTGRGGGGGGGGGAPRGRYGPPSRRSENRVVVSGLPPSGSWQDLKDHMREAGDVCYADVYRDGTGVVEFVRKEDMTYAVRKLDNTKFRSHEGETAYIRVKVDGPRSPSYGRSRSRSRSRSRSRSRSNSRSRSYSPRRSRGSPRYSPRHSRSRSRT
UniProt P49792: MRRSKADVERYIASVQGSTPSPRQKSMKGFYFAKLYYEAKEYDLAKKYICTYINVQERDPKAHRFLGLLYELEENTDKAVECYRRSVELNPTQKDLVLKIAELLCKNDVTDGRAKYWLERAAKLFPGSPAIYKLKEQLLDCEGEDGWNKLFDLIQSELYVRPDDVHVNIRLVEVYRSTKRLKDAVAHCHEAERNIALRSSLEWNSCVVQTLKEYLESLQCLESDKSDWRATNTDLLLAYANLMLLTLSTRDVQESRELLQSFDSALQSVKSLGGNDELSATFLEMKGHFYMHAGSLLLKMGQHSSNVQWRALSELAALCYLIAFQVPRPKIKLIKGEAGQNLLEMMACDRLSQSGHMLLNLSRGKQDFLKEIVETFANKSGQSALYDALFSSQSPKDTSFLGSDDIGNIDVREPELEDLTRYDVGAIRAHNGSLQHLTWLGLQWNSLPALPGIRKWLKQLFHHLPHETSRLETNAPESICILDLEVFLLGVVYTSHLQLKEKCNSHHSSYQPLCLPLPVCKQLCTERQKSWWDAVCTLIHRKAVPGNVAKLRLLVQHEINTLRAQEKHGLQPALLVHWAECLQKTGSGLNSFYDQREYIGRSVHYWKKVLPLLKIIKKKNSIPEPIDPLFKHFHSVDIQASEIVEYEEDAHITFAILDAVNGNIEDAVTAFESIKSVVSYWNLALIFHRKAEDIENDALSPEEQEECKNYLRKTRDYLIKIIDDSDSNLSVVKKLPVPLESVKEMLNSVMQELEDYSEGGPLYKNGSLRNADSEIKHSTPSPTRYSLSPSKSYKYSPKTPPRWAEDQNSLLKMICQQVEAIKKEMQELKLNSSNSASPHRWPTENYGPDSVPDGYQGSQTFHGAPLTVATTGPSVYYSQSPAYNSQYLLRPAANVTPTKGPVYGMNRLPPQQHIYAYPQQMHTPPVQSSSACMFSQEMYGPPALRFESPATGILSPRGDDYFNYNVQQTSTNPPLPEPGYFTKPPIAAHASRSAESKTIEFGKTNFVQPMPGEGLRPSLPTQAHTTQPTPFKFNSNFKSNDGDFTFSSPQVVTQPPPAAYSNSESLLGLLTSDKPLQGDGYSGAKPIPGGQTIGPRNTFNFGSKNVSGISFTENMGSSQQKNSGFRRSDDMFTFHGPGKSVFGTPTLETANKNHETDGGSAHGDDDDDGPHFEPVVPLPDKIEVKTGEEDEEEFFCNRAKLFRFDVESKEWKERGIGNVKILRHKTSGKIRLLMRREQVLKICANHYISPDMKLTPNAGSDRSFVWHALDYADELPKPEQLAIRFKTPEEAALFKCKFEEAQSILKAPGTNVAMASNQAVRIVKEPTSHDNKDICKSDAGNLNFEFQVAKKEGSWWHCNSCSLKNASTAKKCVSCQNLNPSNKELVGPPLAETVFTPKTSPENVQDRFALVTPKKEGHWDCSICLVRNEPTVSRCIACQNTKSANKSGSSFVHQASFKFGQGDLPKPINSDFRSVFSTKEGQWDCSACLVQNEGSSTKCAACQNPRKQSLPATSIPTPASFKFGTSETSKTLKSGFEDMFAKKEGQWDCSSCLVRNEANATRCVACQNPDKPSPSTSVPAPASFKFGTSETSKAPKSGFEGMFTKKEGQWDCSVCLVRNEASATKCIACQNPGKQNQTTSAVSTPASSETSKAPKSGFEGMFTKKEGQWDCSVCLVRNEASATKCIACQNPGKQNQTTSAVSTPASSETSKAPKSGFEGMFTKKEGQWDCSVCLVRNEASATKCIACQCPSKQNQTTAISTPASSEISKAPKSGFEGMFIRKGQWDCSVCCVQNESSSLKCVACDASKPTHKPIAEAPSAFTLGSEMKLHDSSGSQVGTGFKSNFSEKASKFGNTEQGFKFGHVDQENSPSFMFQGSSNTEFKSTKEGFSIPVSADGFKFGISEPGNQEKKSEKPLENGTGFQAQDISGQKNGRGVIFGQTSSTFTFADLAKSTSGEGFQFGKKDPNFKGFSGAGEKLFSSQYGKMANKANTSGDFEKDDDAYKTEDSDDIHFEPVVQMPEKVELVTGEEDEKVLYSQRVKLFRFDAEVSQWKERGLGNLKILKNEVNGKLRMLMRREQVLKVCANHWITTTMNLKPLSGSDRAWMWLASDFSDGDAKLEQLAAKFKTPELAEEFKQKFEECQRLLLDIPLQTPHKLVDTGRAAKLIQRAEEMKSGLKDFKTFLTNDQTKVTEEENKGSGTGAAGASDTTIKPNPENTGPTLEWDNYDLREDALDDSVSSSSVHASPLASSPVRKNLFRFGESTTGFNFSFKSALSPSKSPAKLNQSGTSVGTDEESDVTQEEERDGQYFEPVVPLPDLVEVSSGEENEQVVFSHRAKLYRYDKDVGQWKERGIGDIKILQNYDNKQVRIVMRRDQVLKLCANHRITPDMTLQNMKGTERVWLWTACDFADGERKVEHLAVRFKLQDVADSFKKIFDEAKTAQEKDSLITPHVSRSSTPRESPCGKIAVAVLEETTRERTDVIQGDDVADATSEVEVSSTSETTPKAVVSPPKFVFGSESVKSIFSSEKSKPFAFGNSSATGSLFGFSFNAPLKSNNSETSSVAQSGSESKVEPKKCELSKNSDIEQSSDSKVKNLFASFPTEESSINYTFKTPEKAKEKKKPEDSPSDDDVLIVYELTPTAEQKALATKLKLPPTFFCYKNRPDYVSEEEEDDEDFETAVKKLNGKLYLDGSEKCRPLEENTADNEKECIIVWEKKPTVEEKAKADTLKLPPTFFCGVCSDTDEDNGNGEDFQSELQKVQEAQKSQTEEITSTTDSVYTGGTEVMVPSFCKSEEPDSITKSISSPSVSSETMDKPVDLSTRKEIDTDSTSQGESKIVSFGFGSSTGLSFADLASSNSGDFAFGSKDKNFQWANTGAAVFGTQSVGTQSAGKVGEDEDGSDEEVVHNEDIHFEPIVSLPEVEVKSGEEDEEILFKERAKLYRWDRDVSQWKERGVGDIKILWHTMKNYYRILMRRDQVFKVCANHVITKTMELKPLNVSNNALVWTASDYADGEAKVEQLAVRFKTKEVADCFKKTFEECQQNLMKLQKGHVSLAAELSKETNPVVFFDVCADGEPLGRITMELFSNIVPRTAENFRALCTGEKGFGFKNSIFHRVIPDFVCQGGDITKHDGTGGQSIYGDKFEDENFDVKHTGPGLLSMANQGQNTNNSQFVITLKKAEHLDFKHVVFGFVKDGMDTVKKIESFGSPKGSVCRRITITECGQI
UniProt Q14974: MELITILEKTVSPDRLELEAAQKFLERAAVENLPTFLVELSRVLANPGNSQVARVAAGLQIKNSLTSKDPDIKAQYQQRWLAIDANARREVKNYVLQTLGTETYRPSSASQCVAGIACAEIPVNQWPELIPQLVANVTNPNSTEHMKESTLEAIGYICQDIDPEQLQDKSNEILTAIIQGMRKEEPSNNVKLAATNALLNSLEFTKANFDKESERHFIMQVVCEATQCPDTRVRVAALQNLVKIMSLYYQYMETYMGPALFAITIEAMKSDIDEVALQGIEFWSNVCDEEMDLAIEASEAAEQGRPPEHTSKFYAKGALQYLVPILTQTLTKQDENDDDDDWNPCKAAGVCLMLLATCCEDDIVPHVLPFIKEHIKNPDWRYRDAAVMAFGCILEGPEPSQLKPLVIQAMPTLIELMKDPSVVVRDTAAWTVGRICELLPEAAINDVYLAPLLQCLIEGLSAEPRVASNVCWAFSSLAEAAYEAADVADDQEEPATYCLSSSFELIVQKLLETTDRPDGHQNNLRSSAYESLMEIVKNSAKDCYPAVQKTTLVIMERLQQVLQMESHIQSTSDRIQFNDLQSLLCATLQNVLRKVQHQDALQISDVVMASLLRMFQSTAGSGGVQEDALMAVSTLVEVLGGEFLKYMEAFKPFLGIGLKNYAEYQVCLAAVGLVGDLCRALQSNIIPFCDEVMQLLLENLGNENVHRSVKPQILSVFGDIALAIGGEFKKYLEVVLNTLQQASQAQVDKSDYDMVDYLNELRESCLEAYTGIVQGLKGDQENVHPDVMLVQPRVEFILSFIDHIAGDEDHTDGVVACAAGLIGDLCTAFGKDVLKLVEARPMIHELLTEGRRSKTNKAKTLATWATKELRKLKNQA

Tests used:
[1] = target: T1, FLAG-tagged IRAK2 KK235AA (mouse) (UniProt Q8CFA1); test: proximity ligation; HeLa cells transfected with HA-tagged SRSF1 and FLAG-tagged IRAK2 WT or mutants; mouse anti-HA and rabbit anti-FLAG; Duolink In Situ Green Kit; fixed, permeabilised cells
T1 sequence: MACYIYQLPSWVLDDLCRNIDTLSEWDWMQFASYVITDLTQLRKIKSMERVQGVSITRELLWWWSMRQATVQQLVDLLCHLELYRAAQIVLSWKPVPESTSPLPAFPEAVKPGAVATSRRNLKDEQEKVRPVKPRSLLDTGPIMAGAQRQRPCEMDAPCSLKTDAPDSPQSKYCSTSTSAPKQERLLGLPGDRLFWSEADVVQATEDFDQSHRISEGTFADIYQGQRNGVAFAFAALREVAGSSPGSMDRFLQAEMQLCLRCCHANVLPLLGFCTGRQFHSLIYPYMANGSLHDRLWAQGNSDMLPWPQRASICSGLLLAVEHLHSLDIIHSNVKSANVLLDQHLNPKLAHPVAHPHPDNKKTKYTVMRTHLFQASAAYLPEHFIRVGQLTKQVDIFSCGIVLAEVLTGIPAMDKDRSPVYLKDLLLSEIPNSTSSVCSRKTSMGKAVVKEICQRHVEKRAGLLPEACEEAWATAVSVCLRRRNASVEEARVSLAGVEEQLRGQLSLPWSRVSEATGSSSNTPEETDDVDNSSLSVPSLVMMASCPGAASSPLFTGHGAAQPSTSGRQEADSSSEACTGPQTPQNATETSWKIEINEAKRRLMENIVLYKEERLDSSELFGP

[2] = target: T2, FLAG-tagged IRAK2 Sumo mutant (K123/182/592R) (mouse) (UniProt Q8CFA1); test: as above
T2 sequence: T1 sequence with K123R, K182R, A235K, A236K, K592R

[3] = target: T3, FLAG-tagged IRAK2 WT (mouse) (UniProt Q8CFA1); test: as above
T3 sequence: T1 sequence with A235K, A236K

[4] = target: T4, FLAG-tagged IRAK2 H351A (mouse) (UniProt Q8CFA1); test: co-IP; HeLa cells transiently transfected with FLAG-tagged IRAK2 WT or mutants; IP with anti-FLAG; western blot for endogenous proteins; lysis buffer 0.5% Triton X-100, 20 mM Hepes pH 7.4, 150 mM NaCl
T4 sequence: T1 sequence with A235K, A236K, H351A

[5] = target: T1, FLAG-tagged IRAK2 KK235AA (mouse); test: as above
[6] = target: T5, FLAG-tagged IRAK2 N333A (mouse) (UniProt Q8CFA1); test: as above
T5 sequence: T1 sequence with A235K, A236K, N333A

[7] = target: T6, FLAG-tagged IRAK2 NLS mutant (K361/362/364A) (mouse) (UniProt Q8CFA1); test: as above
T6 sequence: T1 sequence with A235K, A236K, K361A, K362A, K364A

[8] = target: T3, FLAG-tagged IRAK2 WT (mouse); test: as above
[9] = target: T7, FLAG-tagged IRAK2 S136A/T140A double mutant (mouse) (UniProt Q8CFA1); test: as above
T7 sequence: T1 sequence with S136A, T140A, A235K, A236K

Substance | binding [1] | binding [2] | binding [3] | binding [4] | binding [5] | binding [6] | binding [7] | binding [8] | binding [9]
HA-tagged SRSF1 (from UniProt Q6PDM2 1-248) | no binding | no binding | binds |  |  |  |  |  | 
RanBP2 (from UniProt P49792 1-3224) |  |  |  | no binding | no binding | no binding | no binding | binds | 
importin-β (from UniProt Q14974 1-876) |  |  |  | binds | binds | binds | no binding | binds | binds
